Data reported in PubChem BioAssay AID504832 (National Center for Advancing Translational Sciences (NCATS), 2011).
In all, about 310,000 compounds went through this assay and about 18,000 (5.8%) were called active. The shares of active, inactive and inconclusive entries below differ from those in the screen. Calls come from the whole dose curve; as a rule, active = well fitted inhibition curve with a large enough effect; inconclusive = small, poorly fitted or top-dose-only effect, or another doubt; inactive = no such curve, though single readings can be large or run the other way. No potency is given beside an inconclusive call; the fits are too rough.

Test: Primary qHTS for delayed death inhibitors of the malarial parasite plastid, 48 hour incubation
Conditions: P. falciparum luciferase growth in erythrocytes; series mostly up to 28.7 µM
Outline: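 Erythrocytes infected with P. falciparum carrying an integrated firefly luciferase reporter (2% hematocrit, 0.1% parasitemia final) were exposed to compounds in RPMI 1640 with 0.5% Albumax at 37 C, 5% CO2. Growth inhibition was scored as reduced luminescence.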
% is set by controls: 0 for no effect and ±100 for the full control effect; potency is the fitted concentration of half-maximal effect; tags give direction and shape of the fitted curve.

For `COc1cccc(OC)c1C(=O)NC(=S)Nc1cc(-c2nc3ccccc3[nH]2)ccc1Cl`, which Potency is on record?
Its Potency is active: 4.15 µM.

Which Potency does the source give for `CCN(CC)CC#CCC(O)(c1ccccc1)c1ccccc1` here?
Its Potency is inconclusive [inhibitor, partial curve].

For `CCCOc1ccc(N2C(=O)CC(N(Cc3ccco3)C(=O)CC)C2=O)cc1` (stereo unspecified), which Potency is on record?
Its Potency is inconclusive [inhibitor, full curve].

Which Potency does the source give for `Clc1ccc(CNCCCSc2ncccn2)cc1Cl` here?
Its Potency is “inactive”.

Which Potency does the source give for `Cc1cccnc1NC(=O)COc1ccc2oc3c(c2c1)CCCC3` here?
The Potency was inconclusive [inhibitor, single point].

For `COc1cc(/C=C(\C#N)c2nc3ccc(C)cc3[nH]2)c([N+](=O)[O-])cc1OC`, which Potency is on record?
The Potency was inconclusive [inhibitor, single point].

With `Cc1oc(-c2cccc(Cl)c2)nc1CN1CCC(C(=O)NCCCN2CC(C)CC(C)C2)CC1` (stereo unspecified) as the compound, how does the Potency read?
Its Potency is active: 7.38 µM.

For `Cc1ccc(OCCn2cnc3sc(C(N)=O)c(C)c3c2=O)cc1`, which Potency is on record?
The Potency was inconclusive [inhibitor, partial curve, poor fit].

With `COCCCN(C(=O)c1cc(-c2ccco2)nc2ccccc12)c1c(N)n(Cc2ccccc2)c(=O)[nH]c1=O` as the compound, how does the Potency read?
Its Potency is inconclusive [inhibitor, single point].

Which Potency does the source give for `Cc1ccc(CNC(=O)c2ccc(N3CCC4(CC3)CC(c3cccc(Br)c3)=NO4)c(NC(=O)c3c(Cl)cccc3Cl)c2)cc1` here?
Its Potency is active: 5.86 µM.

With `CC(C)OCCCNC(=O)c1ccc(Br)cc1` as the compound, how does the Potency read?
Its Potency is “inactive”.

For `O=C(NCC(c1ccco1)N1CCc2ccccc2C1)C(=O)Nc1ccc(F)cc1F` (stereo unspecified), which Potency is on record?
The Potency was inconclusive [inhibitor, partial curve, poor fit].

With `CCCOc1cccc(C(=O)N/N=C/c2ccoc2)c1` as the compound, how does the Potency read?
Its Potency is “inactive”.

For `O=c1c(-c2ccc(Br)cc2)coc2c(CN3CCCCC3)c(O)ccc12`, which Potency is on record?
The Potency was active: 1.65 µM.

With `CC(=O)C(Sc1ccc2nnc(-c3ccc(C)cc3)n2n1)C(C)=O` as the compound, how does the Potency read?
Its Potency is inconclusive [inhibitor, single point].

For `COc1cc(C)c(CNc2ccc(OC)c(OC)c2)cc1C`, which Potency is on record?
Its Potency is active: 9.28 µM.

With `CN(C)CCNC(=O)c1c(NC(=O)c2ccccc2)sc2c1CCCC2` as the compound, how does the Potency read?
The Potency was inconclusive [inhibitor, single point].

With `COc1cccc(OCCCn2cc(/C=C3/C(=N)N4C=C(C)SC4=NC3=O)c3ccccc32)c1` as the compound, how does the Potency read?
Its Potency is inconclusive [inhibitor, single point].

With `COc1ccccc1Nc1nc(-c2sc(NC(=O)c3ccco3)nc2C)cs1` as the compound, how does the Potency read?
The Potency was active: 11.7 µM.

For `COc1ccc(-c2ncc3ccccn23)cc1`, which Potency is on record?
The Potency was “inactive”.

Which Potency does the source give for `CCN1CCN(c2ncnc3sc(C)c(-c4ccccc4)c23)CC1` here?
The Potency was “inactive”.

Which Potency does the source give for `CCC(C)NC(=O)CCCCCn1c(=O)[nH]c2cc(OC)c(OC)cc2c1=O` (stereo unspecified) here?
Its Potency is inconclusive [inhibitor, partial curve, poor fit].

Which Potency does the source give for `CCCCC(=O)Nc1ncc(S(=O)(=O)c2ccc([N+](=O)[O-])cc2)s1` here?
Its Potency is inconclusive [inhibitor, single point].

With `CC(C)=CCCC(C)CN1CCC(N2CCC(C(=O)N3CCCC3)CC2)CC1` (stereo unspecified) as the compound, how does the Potency read?
Its Potency is inconclusive [inhibitor, single point].

With `COc1ccc(C)cc1NC(=O)c1ccc2c(O)c(S(=O)(=O)c3ccccc3)c(=O)[nH]c2c1` as the compound, how does the Potency read?
The Potency was “inactive”.

With `CC(C)Cc1nnc(NC(=O)CCC(=O)N2CCN(c3ccccc3F)CC2)s1` as the compound, how does the Potency read?
The Potency was “inactive”.

For `COc1ccc(/C=N/NC(=O)c2cc(-c3ccc4c(c3)OCO4)n[nH]2)cc1OC`, which Potency is on record?
Its Potency is inconclusive [inhibitor, partial curve].

For `CC(C)CC(=O)NC(=S)NCCc1ccccc1`, which Potency is on record?
Its Potency is inconclusive [inhibitor, partial curve, poor fit].

Which Potency does the source give for `CC(=O)CC(=O)NC(=NC1CCCCC1)Nc1nc(C)cc(C)n1` here?
The Potency was inconclusive [inhibitor, single point].

With `CCCN1C(=O)C(Cc2nc3ccccc3c(=O)n2-c2ccccc2)c2ccccc21` (stereo unspecified) as the compound, how does the Potency read?
The Potency was inconclusive [inhibitor, single point].

For `CCCCCOP(=O)(OCCCCC)C1(NS(=O)(=O)c2ccccc2)C=CC(=O)c2ccccc21` (stereo unspecified), which Potency is on record?
Its Potency is active: 9.28 µM.

For `CCCCCC(=O)Nc1sc(C)c(C)c1C#N`, which Potency is on record?
The Potency was “inactive”.

For `C[C@]12CC[C@@H]3c4ccc(O)cc4CC[C@H]3[C@@H]1CCC2=O`, which Potency is on record?
The Potency was inconclusive [inhibitor, partial curve, poor fit].

With `COc1ccc(C2=CC(=O)OC(C)(c3ccccc3)O2)cc1` (stereo unspecified) as the compound, how does the Potency read?
The Potency was active: 11.7 µM.

Which Potency does the source give for `C=CCc1cccc(OC)c1OCCOCCn1ccnc1` here?
The Potency was “inactive”.

With `CCOC(=O)N1CCN(C(=O)C2CCC(=O)N(CCCc3ccccc3)C2)CC1` (stereo unspecified) as the compound, how does the Potency read?
The Potency was “inactive”.

With `CCOC(=O)c1cc([N+](=O)[O-])sc1NC(=O)c1ccc(S(=O)(=O)N2CC3(C)CC2CC(C)(C)C3)cc1` (stereo unspecified) as the compound, how does the Potency read?
The Potency was “inactive”.

Which Potency does the source give for `COC(=O)c1ccc(Nc2nnc(-c3ccc(C)c(S(=O)(=O)NCC4CCCO4)c3)c3ccccc23)cc1` (stereo unspecified) here?
Its Potency is active: 7.38 µM.

For `COc1ccc(C(=O)NNC(=O)Cc2ccc([N+](=O)[O-])cc2)cc1`, which Potency is on record?
Its Potency is “inactive”.

Which Potency does the source give for `Cc1cc2nc(N=C(N)N)nc(C)c2cc1C` here?
The Potency was inconclusive [inhibitor, full curve].

With `C=CCN1C(=O)c2ccc(C(=O)N(CC(C)C)c3c(N)n(CCCC)c(=O)[nH]c3=O)cc2C1=O` as the compound, how does the Potency read?
The Potency was inconclusive [inhibitor, single point].

Which Potency does the source give for `CN1CCN(C(c2ccc(C(F)(F)F)cc2)c2cc(Cl)c3cccnc3c2O)CC1` (stereo unspecified) here?
The Potency was inconclusive [inhibitor, single point].

Which Potency does the source give for `COc1ccc(CNc2ncnc3cc(OC)c(OC)cc23)cc1` here?
The Potency was active: 4.15 µM.

Which Potency does the source give for `S=C(Nc1ccc(Cl)cc1)NC1CCCCC1` here?
Its Potency is inconclusive [inhibitor, single point].

For `CCOC(=O)C(CC)Sc1cc(C)nc2ccc(OC)cc12` (stereo unspecified), which Potency is on record?
Its Potency is inconclusive [inhibitor, single point].

With `Cc1ccc(OCCOC(=O)c2cccc(S(=O)(=O)N3CC(C)OC(C)C3)c2)cc1` (stereo unspecified) as the compound, how does the Potency read?
The Potency was active: 13.1 µM.

Which Potency does the source give for `O=C(O)CCn1cc(-c2ccc(Cl)cc2)nc1-c1ccc(Cl)nc1` here?
Its Potency is inconclusive [inhibitor, single point].

For `CN(C)S(=O)(=O)n1cc(/C=C(\NC(=O)c2ccccc2F)C(=O)NCCCN2CCOCC2)c2ccccc21`, which Potency is on record?
The Potency was inconclusive [inhibitor, partial curve].

With `Cc1ccc(C(=O)Nc2cccnc2)cc1S(=O)(=O)N1CCCCCC1` as the compound, how does the Potency read?
The Potency was inconclusive [inhibitor, single point].

With `Cc1ccc(NS(=O)(=O)Cc2ccccc2)cc1Cl` as the compound, how does the Potency read?
Its Potency is “inactive”.

Which Potency does the source give for `COc1ccc(C(CNC(=O)c2c(C)nn(Cc3ccccc3)c2Cl)N2CCOCC2)cc1` (stereo unspecified) here?
Its Potency is inconclusive [inhibitor, partial curve].

With `COCCn1c(N)c(C(=O)c2cccc(S(=O)(=O)N3CCCCCC3)c2)c(=O)[nH]c1=O` as the compound, how does the Potency read?
Its Potency is inconclusive [inhibitor, single point].

With `O=C(c1cnccn1)N1CCc2ccccc21` as the compound, how does the Potency read?
Its Potency is “inactive”.

With `CC(C)c1ccc(N(C(=O)CNC(=O)c2ccco2)C(C(=O)NC2CCCC2)c2cccnc2)cc1` (stereo unspecified) as the compound, how does the Potency read?
The Potency was inconclusive [inhibitor, single point].

With `COc1ccc(OC)c(Cc2nnc(CCC(=O)NC(C3CC3)C3CC3)o2)c1` as the compound, how does the Potency read?
Its Potency is “inactive”.

With `Oc1ccc(F)c2cccnc12` as the compound, how does the Potency read?
Its Potency is inconclusive [inhibitor, partial curve, poor fit].

Which Potency does the source give for `COc1cc(C(=O)NC2=C(C#N)CCC2)cc(OC)c1OC` here?
Its Potency is “inactive”.

With `Cc1cc(NCCCN2CCOCC2)n2nc(C)c(-c3ccccc3)c2n1` as the compound, how does the Potency read?
The Potency was inconclusive [inhibitor, partial curve].

Which activity change, negative = inhibition does the source give for `CC1CC(CC(=O)Nc2nc(-c3ccccc3)cs2)C(=O)O1` (stereo unspecified) here?
The activity change, negative = inhibition was inactive: -22.8% [at 5.75 µM].

Which Potency does the source give for `COc1cccc(NC(=S)N(CCc2ccc(OC)c(OC)c2)Cc2ccccn2)c1` here?
Its Potency is inconclusive [inhibitor, single point].

Which Potency does the source give for `CCN(CC)S(=O)(=O)c1ccc2[nH]c(=O)cc(C(=O)NCC3CCCO3)c2c1` (stereo unspecified) here?
Its Potency is inconclusive [inhibitor, partial curve, poor fit].

With `Cc1c(C(=O)Nc2ccncc2)sc2nc(-c3ccccc3)cn12` as the compound, how does the Potency read?
The Potency was active: 4.15 µM.

For `CC(C)NCC(O)COc1ccc(Br)cc1` (stereo unspecified), which Potency is on record?
The Potency was inconclusive [inhibitor, single point].

Which Potency does the source give for `CN(Cc1ccccc1F)Cc1cc(=O)oc2cc(O)c(Cl)cc12` here?
The Potency was inconclusive [inhibitor, partial curve, poor fit].

For `CCCN(CC1CC1)C(=O)COC(=O)c1oc2ccc(OCC)cc2c1C`, which Potency is on record?
The Potency was inconclusive [inhibitor, single point].

Which Potency does the source give for `CC(NC(=O)c1ccccc1NC(=O)c1ccccc1)C(=O)N1CCOCC1` (stereo unspecified) here?
Its Potency is inconclusive [inhibitor, single point].

For `Cc1ccccc1OCC(=O)N/N=C/c1cccn1C`, which Potency is on record?
Its Potency is inconclusive [inhibitor, full curve, poor fit].

For `COC(=O)c1ccc([C@@H]2C[C@H]3CN(Cc4cccnc4)C(=O)[C@]34CCCN24)cc1`, which Potency is on record?
Its Potency is inconclusive [inhibitor, partial curve].

For `O=C(c1cc(-c2ccco2)on1)N1CCOCC1`, which Potency is on record?
Its Potency is “inactive”.

With `O=C(CN1CCN(CC(=O)Nc2ccc(-c3ccccc3)cc2)CC1)Nc1ccc(F)cc1` as the compound, how does the Potency read?
The Potency was “inactive”.

Which Potency does the source give for `O=C(CCCCCN1C(=O)c2ccccc2C1=O)Nc1nccs1` here?
Its Potency is inconclusive [inhibitor, partial curve, poor fit].
